# The list shows a part of the results.
# B1: chr1:163112212:163112213:-_ENSG00000143248_ENST00000313961|hu_hu|hu_hu_hu_mus_False|88_88 (ssRNA)
# RNA: GGGAGUUCUACAGUCCGACGAUCUUUUAUUAUCAGUAAGAGUGAGUCACAUAGUACGCAAAGUAUUGGAUACAAUAAUCAGGAAACAAACACUAUUGGUCCAGAAUUUAAAACUUUAUGAGCGAAGUGCUGGCACAGGACUUACAACAGAGGAUUGAGCAUCA
# B2: chr13:14287670:14287671:+_ENSMUSG00000039219_ENSMUST00000039538|mus_hu|motif|central (ssRNA)
# RNA: GGGAGUUCUACAGUCCGACGAUCAGCAGCACUUUCUCUCUCUUUCUUCUUUAAACGCUUUCUCCUCCGAUCAAUGGAAGCGGCUUCAGAUUUUAAUGACAGAUAAUGUUUUCUGAUUUCUUGAAGUUUUUCUUGAAGAAUUGUCAACAGAGGAUUGAGCAUCA
# B3: 54476299_54477260_1302_CDS_ENSMUSG00000041303_ENSMUST00000041638|mouse|control|control (ssRNA)
# RNA: GGGAGUUCUACAGUCCGACGAUCAGAAUUAUAUUCACCAACAUCCAGAAAAGCUUCAGCAACAUCAAGAUAGAGGUCACCCAUAUCUUCAGGGUUCUGUUCUACCAGUGUUGUCAGAAGAGGAUUGAGGGGCUCAAGGAUGUUCAACAGAGGAUUGAGCAUCA
# B4: chr5:56168658:56168659:+_ENSG00000095015_ENST00000399503|hu_mus|FALSE|FALSE (ssRNA)
# RNA: GGGAGUUCUACAGUCCGACGAUCGGAGGAUGGCUGCUGGACAGCUCGCAGGGAGGUGGGGGACUCCACGGGGCUUGAUAACUCAUGGCUGUAGAAGUCAUGGGAUCUCCACUUAGAUCUACAAAGGGGACAUAUUAAAGGCUCCAACAGAGGAUUGAGCAUCA
# B5: chr1:244870462:244870463:+_ENSG00000121644_ENST00000302550|hu_mus|FALSE|FALSE (ssRNA)
# RNA: GGGAGUUCUACAGUCCGACGAUCAUGAAAUUUACUCAAAGACAUGUAUCUUCACACAGAGAAUGUGACUCUCACACUAAUCACGUAUCUAAAGCUGCAGUCAGUACCUUGGAUGUUCCUAUGUUGUAUCCACUACUUACACAGCAACAGAGGAUUGAGCAUCA
# B6: chr2:44571030:44571031:-_ENSG00000138078_ENST00000409411|hu_mus|FALSE|FALSE (ssRNA)
# RNA: GGGAGUUCUACAGUCCGACGAUCCCUUAUCUUGGCAGCCACGUAUUUCUCAUCAGGAGCAACUCUGAUGCAAUCAAUGAAAGGCUGAUCCAAUUUAAGUUCUUCCAGGUUGAAUAAAACUUCAUAAUUAUCACUGUCAGCUUCCAACAGAGGAUUGAGCAUCA
# B7: chr12:123346578:123346579:+_ENSG00000130787_ENST00000253083|hu_hu|motif|central (ssRNA)
# RNA: GGGAGUUCUACAGUCCGACGAUCAGCUCUAGCUCGGAAUAUUAAAAACACUAUUUUCUGAAGAGGAAUAUUAAAAACACGGUUUUCUGAAGAGUUGAGGCUCAGGCCUACCGGGUCCUGGCUGCACCCCAAAGUUCCUUCUGCCAACAGAGGAUUGAGCAUCA
# B8: chr4:48850422:48850423:+_ENSG00000109180_ENST00000264312|hu_hu|motif|central (ssRNA)
# RNA: GGGAGUUCUACAGUCCGACGAUCAGCAAGUAUAAGUUUAGGGAUGGAACCAUAUUUGGGAUGACUUGAAAGUAUUCCUUUACGGAUUAAUCCUUGAGUAAUCAACAUACUUGUUGCAGCCAAAGGCACAGAUCUGAACCAGAACAACAGAGGAUUGAGCAUCA
# B9: chr15:51794541:51794542:-_ENSMUSG00000022314_ENSMUST00000022927|mus_hu|FALSE|FALSE (ssRNA)
# RNA: GGGAGUUCUACAGUCCGACGAUCCUGAAGUCUGAGUUUCAAAAGUGAUUUUUUUUUCCCACAAAAGUUUCAACACUUAAGCUAGAACUUUCAGUGUUAACUUUGCCCUAAAAAGUUAAGACAUUCUGAUAAUCAUAACAGUCACAACAGAGGAUUGAGCAUCA
# B10: chr4:25749455:25749456:-_ENSG00000091490_ENST00000264868|hu_hu|hu_hu_hu_mus_False|68_88 (ssRNA)
# RNA: GGGAGUUCUACAGUCCGACGAUCGCACUAUGACCUCUAGAAAAAUCAUUCAAGGAGAAAAAUGUAAACCAAUUUACAAUGUUAUCGCCUUCCCUGUGUGUGGAGUGUUUGUCUCAAGGCUCCUUCUAGCUGCUGGAUUUGGGACAACAGAGGAUUGAGCAUCA
# B11: chr3:10168198:10168199:+_ENSG00000254999_ENST00000256463|hu_hu|motif|central (ssRNA)
# RNA: GGGAGUUCUACAGUCCGACGAUCUGUCUCAAAUACAUUGACAAGUAGAUGUAUAAAAUGUUACUGAAAAGGUAAAAUGCCGGACGUCGUUUCCAACGGUUCCUCUGAACUUCUUCCCACAUACCACACCACACCCCAGAUGGCCAACAGAGGAUUGAGCAUCA
# B12: chr2:70106199:70106200:+_ENSG00000087338_ENST00000282570|hu_hu|motif|central (ssRNA)
# RNA: GGGAGUUCUACAGUCCGACGAUCCGAUGUGAAUAUCAGUAGGGCCAUUAAAUUAAAGCUGGCCUAAAAAGUUUUCAAAGUGCGGCUGUUUCCAACUGAUGAAAUCUUCAGUUUUCUGGAUUUUCUGGGUGACGAUUAUUUUCACAACAGAGGAUUGAGCAUCA
# B13: chr2:153237265:153237266:-_ENSMUSG00000061411_ENSMUST00000109784|mus_mus|motif|central (ssRNA)
# RNA: GGGAGUUCUACAGUCCGACGAUCAAAAAAAAGAAAAGAAAAGUGUCCUUGUGCCCAAAGUCUCAGAUGCUUGGAGUGCAGCGGGAAACAGCUCUUUUGGAUCCCACCUCUUUCAGAAAACAGUGUACCAACUGGUGAGGCAGGCAACAGAGGAUUGAGCAUCA
# B14: chr2:179515052:179515053:+_ENSMUSG00000000305_ENSMUST00000000314|mus_hu|mus_mus_mus_hu_False|38_88 (ssRNA)
# RNA: GGGAGUUCUACAGUCCGACGAUCGCUGUCCCAUGCAGUCACCGUGAAGGCCACCUGCUCGGAGGGGACCUGCAGCUCCCGGGUGGCGAAGACUGUCCCAUCCGCCCCAACUUUGAAGUCCAUGCUGUUGGUCUCAUAUUGUGUCAACAGAGGAUUGAGCAUCA
# Molecular target: T1, UNK ZnF1-3 (human, UniProt Q9C0B0 31-174)
# T1 sequence: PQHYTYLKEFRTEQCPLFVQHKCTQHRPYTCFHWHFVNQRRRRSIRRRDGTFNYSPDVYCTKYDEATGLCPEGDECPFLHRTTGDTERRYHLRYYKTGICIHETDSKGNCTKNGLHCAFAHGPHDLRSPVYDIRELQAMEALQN
# Assay: nsRBNS (natural sequence RNA bind-n-seq); RBNS binding buffer (assumed for nsRBNS): 25 mM Tris pH 7.5, 150 mM KCl, 3 mM MgCl2, 0.01% Triton X-100, 500 ug/ml BSA, 20 U/ml SUPERase-In, 4 C; UNK is unkempt and MSI1 is Musashi-1; names of the RNAs are library labels; protein concentration not given here; high values mean tight binding
row,Binder,binding signal [enrichment R]
1,B1,1.68
2,B2,1.04
3,B3,1.63
4,B4,1.69
5,B5,0.604
6,B6,1.39
7,B7,1.39
8,B8,1.3
9,B9,0.496
10,B10,1.11
11,B11,1.21
12,B12,0.809
13,B13,1.35
14,B14,0.771
